Measured values reported in publication PMC4336329 (PLoS ONE, 2015).
About 14,000 (4.5%) of roughly 310,000 compounds showed an effect of 50% or more. The effect is printed as a negative number. The list shows a part of the results.

biological target: human ether-à-go-go-related gene (hERG) potassium channel (human, UniProt Q12809); test: primary screen, population patch clamp on CHO cells stably expressing hERG
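Further: peak tail current of the secondary pulse compared with the same well before compound.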

human ether-à-go-go-related gene (hERG) potassium channel, sequence (Q12809 whole entry, looked up): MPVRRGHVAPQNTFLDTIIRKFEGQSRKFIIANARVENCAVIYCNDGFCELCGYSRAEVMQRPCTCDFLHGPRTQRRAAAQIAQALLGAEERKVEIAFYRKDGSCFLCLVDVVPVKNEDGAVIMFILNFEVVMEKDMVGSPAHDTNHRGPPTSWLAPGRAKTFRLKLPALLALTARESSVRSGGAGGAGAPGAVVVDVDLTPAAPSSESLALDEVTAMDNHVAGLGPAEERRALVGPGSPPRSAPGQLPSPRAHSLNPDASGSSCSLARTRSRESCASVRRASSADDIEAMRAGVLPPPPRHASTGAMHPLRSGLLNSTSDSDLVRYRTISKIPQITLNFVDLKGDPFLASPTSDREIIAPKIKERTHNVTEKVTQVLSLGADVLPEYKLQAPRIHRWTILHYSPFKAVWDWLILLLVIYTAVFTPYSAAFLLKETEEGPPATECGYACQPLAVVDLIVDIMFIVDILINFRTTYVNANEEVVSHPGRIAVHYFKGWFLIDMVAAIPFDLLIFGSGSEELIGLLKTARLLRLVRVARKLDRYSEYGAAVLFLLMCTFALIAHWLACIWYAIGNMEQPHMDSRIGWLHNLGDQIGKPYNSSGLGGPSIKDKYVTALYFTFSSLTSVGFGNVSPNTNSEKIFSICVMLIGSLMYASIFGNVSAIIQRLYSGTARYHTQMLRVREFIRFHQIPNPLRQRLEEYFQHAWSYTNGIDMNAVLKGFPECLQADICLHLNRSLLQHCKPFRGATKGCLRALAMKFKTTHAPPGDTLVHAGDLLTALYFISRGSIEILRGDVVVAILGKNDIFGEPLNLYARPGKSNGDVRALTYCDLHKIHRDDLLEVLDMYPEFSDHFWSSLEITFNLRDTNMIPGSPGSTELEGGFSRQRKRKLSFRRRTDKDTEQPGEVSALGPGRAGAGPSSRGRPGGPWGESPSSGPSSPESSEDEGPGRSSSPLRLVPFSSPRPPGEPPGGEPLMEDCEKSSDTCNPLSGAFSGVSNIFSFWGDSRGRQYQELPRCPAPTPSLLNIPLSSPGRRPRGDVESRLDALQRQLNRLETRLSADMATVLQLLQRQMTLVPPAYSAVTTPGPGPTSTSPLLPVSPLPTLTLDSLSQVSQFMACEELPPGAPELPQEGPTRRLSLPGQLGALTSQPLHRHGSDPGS

SMILES	hERG current change (%, negative = inhibition) at 10uM [%]
O=C(O)c1ccc(S(=O)(=O)c2ccc3c(c2)C(=O)N(NC(=O)c2ccc(O)cc2)C3=O)cc1	-3.45
COc1ccc(CNC(=O)C2COc3ccccc3O2)cc1 (stereo not drawn)	2.57
COCCCn1cc(C(=O)c2cc(OC)ccc2OCC(=O)N2CCCCC2C)cc(C#N)c1=O (stereo not drawn)	-22.9
CC(=O)N1c2ccc(S(=O)(=O)N3CCCC3C(=O)NCc3ccc(Cl)cc3)cc2CC1C (stereo not drawn)	-62.9
CC(C)OP(=O)(OC(C)C)C(O)c1ccc(Br)cc1 (stereo not drawn)	-2.31
Cn1c(=O)oc2cc(S(=O)(=O)NCCC(=O)NC3CCCC3)ccc21	0.447
CC(=O)c1cccc(NC(=S)NC(=O)CC(C)C)c1	0.0132
COC(=O)c1[nH]c2c(c1C)C(=O)CC(c1cc(OC)ccc1OC)C2 (stereo not drawn)	5.02
Cc1ccc(OCc2nc(C#N)c(NCCCn3ccnc3)o2)cc1	-56
CCc1ccc(-c2cn(-c3nc(C)cc(C)n3)c(=N)o2)cc1	-71.8
COc1ccc(OC)c(NC(=O)CCCSc2ccccc2)c1	-13.9
COc1cccc(NC(=O)CN2CCN(S(=O)(=O)c3ccc(F)cc3)CC2)c1	-23.1
CC(C)(C)c1ccc(Oc2ccc(N)cn2)cc1	-5.07
C[n+]1ccc(C(=O)NCCC[N+](C)(C)C)cc1/C=N/O.[Cl-]	37.3
O=C(Nc1ccc2c(c1)OCO2)[C@@H]1[C@@H]2C(=O)N(C3CCCCC3)C(=O)[C@@H]2C2c3ccccc3C=CN21 (stereo partly drawn)	-11.1
Cc1ccc(NC(=O)CSc2nc3nc(C)c(Br)cc3[nH]2)cc1F	13.7
N#Cc1cnn(-c2ncnc3sc(-c4ccccc4)cc23)c1N	-2.64
COc1ccc(-n2c(Cc3cc(=O)[nH]c(=O)[nH]3)nnc2SCC(=O)N2CCCC2)cc1	-14
COc1cc(OC)cc(OC(=O)c2ccc3c(=O)n4c(nc3c2)CCC4)c1	-14.1
c1ccc(CCn2c3ccccc3c3nnc(SCc4ccc5nonc5c4)nc32)cc1	-3.93
COc1ccc(Cl)cc1N(CC(=O)Nc1ccccc1C(=O)N1CCOCC1)S(C)(=O)=O	-1.4
O=C(Nc1nc(COc2ccccc2)cs1)C12CC3CC(CC(C3)C1)C2	-2.42

SMILES	hERG current change (%, negative = inhibition) at 10uM [%]
O=C(Nc1ncnc2sc3c(c12)CCCCC3)c1ccco1	-5.5
COC(=O)C1=C(N)Oc2cc(C)oc(=O)c2C12C(=O)Nc1ccccc12 (stereo not drawn)	24.5
Nc1ncnc(Nc2cccc(C(F)(F)F)c2)n1	-5.45
O=C(COc1ccccc1[N+](=O)[O-])N(Cc1cccc(Br)c1)C1CCS(=O)(=O)C1 (stereo not drawn)	-57.8
Cn1c(=O)oc2cc(S(=O)(=O)N3CCN(Cc4ccc5c(c4)OCO5)CC3)ccc21	-37.3
O=C(CSc1nc2ccccc2o1)NCC1CCCO1 (stereo not drawn)	-35
Cc1cc(C(F)(F)F)nc(-n2cc(-c3cccc(N)c3)nn2)n1	1.83
CCCC(=O)Nc1nn(CC)c2nc3ccc(C)cc3cc12	-1.93
COc1ccc(S(=O)(=O)N(C)CC(=O)N2CCCC2)cc1OC	13
COc1cccc(-c2cc(C(=O)N3CCc4ccccc4C3)[nH]n2)c1	15.1
COC(=O)C1=C(N)Oc2cc(C)[nH]c(=O)c2C1c1ccncc1 (stereo not drawn)	8.32
COc1cc(C(=O)Nc2c(C(=O)N3CCOCC3)oc3ccccc23)cc(OC)c1OC	-10
CC(C)OC(=O)CN1C(=O)S/C(=C/c2ccc(N3CCCCC3)o2)C1=O	-6.27
O=C(CCCN1C(=O)/C(=C\c2cccs2)SC1=S)Nc1cc([N+](=O)[O-])ccc1O	34.5
CCOC(=O)C1=C(c2ccccc2)N=C2SCC(=O)N2C1c1ccc(OC)c(OC)c1 (stereo not drawn)	-11.9
CCN(c1ccccc1)S(=O)(=O)c1nnc(NC(=O)C(C)(C)C)s1	13.9
COc1cc2ccccc2cc1C(=O)Nc1nccs1	0.854
Cc1cccc(N2CCN(C(=O)c3ccc4c(c3)NC(=O)C(CSCc3cccc(F)c3)N4)CC2)c1C (stereo not drawn)	15.9
Cc1ccc2nc(SCC(=O)NCc3ccco3)[nH]c2c1	-0.695
O=C(CN1C(=O)c2cccnc2Oc2ccc(Cl)cc21)N1CCOCC1	14.9
O=c1cc(N2CCOCC2)[nH]c(=O)n1-c1ccc(Br)cc1	17.2
C/C(=N\OCc1ccc(C#N)cc1)c1ccc(S(=O)(=O)N(C)C)cc1	-52.7

SMILES	hERG current change (%, negative = inhibition) at 10uM [%]
Cc1c([N+](=O)[O-])c([N+](=O)[O-])nn1CC(=O)NCc1cccnc1	12.3
CCOC(=O)N1CCN(c2ncnc3c2[nH]c2ccc(OC)cc23)CC1	-44.1
Brc1ccc2[nH]cc(/C=N/N3CCCCC3)c2c1	6.01
NS(=O)(=O)c1ccc(-n2cccc2C=O)cc1	30.7
CN1CCN(C(=O)c2ccc(C(F)(F)F)cc2)CC1.Cl	26.7
COc1ccc(Cl)c(Cn2c(NCCCN(C)C)nc3c2c(=O)n(C)c(=O)n3C)c1	-34.1
c1ccc(CN2CCC3(CC2)Nc2ccccc2CO3)cc1	-21.9
O=C(c1ccccc1F)N1CCN(c2ccc([N+](=O)[O-])c(N3CCOCC3)c2)CC1	14.2
O=C(O)c1cc2ccccc2c(=O)s1	12.6
COc1cc(C(=O)NCCOc2ccccc2)cc(OC)c1OC	12.9
Cc1ccc(OCC(O)CNCc2ccc(F)cc2)cc1 (stereo not drawn)	-40.5
O=C(Nc1ccc(C(=O)O)cc1)/C(=C\C=C\c1ccccc1)NC(=O)c1ccccc1Br	1.27
COCCCN(C(=O)CSCc1c(C)noc1C)c1c(N)n(Cc2ccccc2)c(=O)[nH]c1=O	16.5
CCCCCCC(=O)N(O)C1CC(=O)N(c2ccc(Br)cc2)C1=O (stereo not drawn)	2.86
O=C(NNC(=O)c1c(O)c2ccccc2[nH]c1=O)c1ccccc1Br	-6.94
COc1ccc(CN(C)Cc2ccccc2)c(OC)c1OC	-16.9
COc1ccc(Cl)cc1NC(=O)c1cccnc1	11
O=C(Nc1ccc2c(c1)OCO2)c1ccc(Br)c(S(=O)(=O)N2CCCC2)c1	11.1
Cn1c(=O)c2c(nc(CN3CCN(C(=O)c4ccco4)CC3)n2Cc2cccc(Cl)c2)n(C)c1=O	-60.1
COc1ccc(OC)c(NC(=O)C2CC(/C=C/c3ccccc3)=NO2)c1 (stereo not drawn)	20.6
Cn1c(=O)cc(SCC(=O)N2CCN(c3ccccn3)CC2)c2ccccc21	-36.9
CC(=O)N1CCN(C(=O)c2cc(-c3cccc4ccccc34)nc3ccccc23)CC1	-28.9

SMILES	hERG current change (%, negative = inhibition) at 10uM [%]
CCNC(=S)N/N=C/c1ccc(-c2ccccc2)o1	3.43
Cc1ccccc1C(=O)NNC(=S)NC(=O)c1cccs1	23.4
O=C(CNS(=O)(=O)c1ccccc1)N/N=C\c1ccc(Cl)cc1	-11
Cc1cc(NC(=O)CCNS(=O)(=O)c2ccc3[nH]c(=O)oc3c2)ccc1Br	17.9
CO.COc1ccc(Nc2nc(Nc3ccc(OC)cc3)nc(SC3=NCCS3)n2)cc1	14.2
Cc1ccc(/C=C2\SC(=S)N(CC3CCCO3)C2=O)o1 (stereo not drawn)	-4.54
CC(C)Cc1nc2oc3c(=O)[nH]cnc3c2c2c1CCCC2	-6.24
COCCN1Cc2cc3cc(C)ccc3nc2SC1=Nc1ccc(OC)cc1	7.73
O=C1CCCN1CC(CN1CCOCC1)Sc1nnnn1-c1ccccc1 (stereo not drawn)	-7.49
CCOC(=O)c1c(C)[nH]c(C)c1C(=O)COC(=O)c1cc2ccccc2cc1OC	0.924
CCC1CCCCN1C/C=C/c1ccccc1[N+](=O)[O-] (stereo not drawn)	-60.2
Nc1ccccc1C(=O)NCc1ccc(Cl)cc1	-5.14
O=C(Nc1cc(S(=O)(=O)N2CCOCC2)ccc1N1CCOCC1)c1cc(=O)[nH]c2ccccc12	6.32
CCCCCCc1cc2cc(S(=O)(=O)c3ccc(Cl)cc3)c(=O)oc2cc1O	12.9
Cc1nc(-c2ccc(NC(=O)c3ccc(Br)o3)cc2)cs1	4.44
COc1cccc(CNC(=O)c2cc(C)nc3ccccc23)c1	4.44
COC(=O)C(O)(c1c(C)[nH]n(-c2ccccc2)c1=O)C(F)(F)F (stereo not drawn)	23
CC1(c2nnc(-c3ccc(Cl)cc3)o2)CC(c2ccc([N+](=O)[O-])cc2)=NO1 (stereo not drawn)	-15.6
COc1ccccc1NC(=O)CNC(c1ccccc1)c1ccccc1	1.36
COc1ccccc1N1CCN(C(=O)Nc2ccc([N+](=O)[O-])cc2)CC1	-52.4
Cc1c(Cc2ccccc2)c(=O)oc2cc(OCC(=O)N3CCC(C(=O)O)CC3)ccc12	6.24
